Holding throughout (assay): Broth microdilution (CLSI), cation-adjusted Mueller-Hinton broth, two-fold steps from 0.25 to 128 µg/mL, 18 h at 37 °C.
Background: Dilution methods test growth across graded concentrations, often in twofold steps.

Compound in one test: C[C@@H](O)[C@H]1C(=O)N2C(C(=O)O)=C(SCCNC=N)C[C@H]12 [Imipenem]
Compound in a further test: C[C@@H](O)[C@H]1C(=O)N2C(C(=O)O)=C(S[C@@H]3CN[C@H](C(=O)N(C)C)C3)[C@H](C)[C@H]12 [Meropenem]
Compound in a further test: C[C@@H](O)[C@H]1C(=O)N2C(C(=O)O)=C(S[C@@H]3CN[C@H](C(=O)Nc4cccc(C(=O)O)c4)C3)[C@H](C)[C@H]12 [Ertapenem]

For 42 test systems, MIC results are on record in the supplement of paper PMC10886265.

MIC by broth microdilution (CLSI, 0.25-128 µg/mL, 18 h, 37 °C) of Gram-negative wastewater isolates picked on carbapenem-selective plates; higher = less susceptible. No active / inactive call. Isolates were selected for resistance.

What is called MIC is the lowest concentration found to suppress growth. Turning to “Acinetobacter baumannii isolate primary sludge #22 (carbapenemase genes (PCR): ND)”, the minimal inhibitory concentration (MIC) with Imipenem came out at 64 µg/mL; with Meropenem it was 32 µg/mL; in the test with Ertapenem it was 64 µg/mL.

Take “Acinetobacter johnsonii isolate sewage #226 (carbapenemase genes (PCR): IMP)”: the MIC came out at 16 µg/mL with Imipenem, 64 µg/mL with Meropenem and 8 µg/mL with Ertapenem.

For the test system “Aeromonas caviae isolate primary sludge #32 (carbapenemase genes (PCR): KPC)”, the MIC in the test with Imipenem is 32 µg/mL; in the test with Meropenem it was 128 µg/mL; with Ertapenem, 64 µg/mL.

In the case of “Aeromonas hydrophila isolate primary sludge #175 (carbapenemase genes (PCR): ND)”, the MIC with Imipenem is 64 µg/mL; in the test with Meropenem, 64 µg/mL; with Ertapenem it was 16 µg/mL.

“Aeromonas hydrophila isolate sewage #6 (carbapenemase genes (PCR): KPC)”: the values for the MIC with Imipenem, with Meropenem and with Ertapenem were 16 µg/mL, 16 µg/mL and 4 µg/mL, respectively.

For the test system “Citrobacter braakii isolate primary sludge #94 (carbapenemase genes (PCR): KPC)”, the MIC in the test with Imipenem worked out at 8 µg/mL; in the test with Meropenem, 32 µg/mL; with Ertapenem it was 4 µg/mL.

As for “Citrobacter freundii isolate primary sludge #140 (carbapenemase genes (PCR): OXA-48+KPC)”, the MIC with Imipenem amounted to 16 µg/mL; with Meropenem, 32 µg/mL; with Ertapenem, 8 µg/mL.

On to “Citrobacter freundii isolate primary sludge #178 (carbapenemase genes (PCR): OXA-48)”, for which the MIC came out at 64 µg/mL in the test with Imipenem, 128 µg/mL in the test with Meropenem and 32 µg/mL in the test with Ertapenem.

Turning to “Citrobacter freundii isolate primary sludge #179 (carbapenemase genes (PCR): OXA-48)”, the MIC was 64 µg/mL in the test with Imipenem, 128 µg/mL in the test with Meropenem and 32 µg/mL with Ertapenem.

For “Citrobacter freundii isolate primary sludge #195 (carbapenemase genes (PCR): KPC)”, the MIC in the test with Imipenem came out at 16 µg/mL; with Meropenem, 64 µg/mL; with Ertapenem it was 4 µg/mL.

With “Citrobacter freundii isolate secondary sludge #160 (carbapenemase genes (PCR): KPC)”, the values for the MIC with Imipenem, in the test with Meropenem and with Ertapenem were 16 µg/mL, 32 µg/mL and 16 µg/mL, respectively.

“Citrobacter freundii isolate secondary sludge #161 (carbapenemase genes (PCR): KPC)”: the MIC with Imipenem worked out at 16 µg/mL; with Meropenem, 32 µg/mL; with Ertapenem, 32 µg/mL.

Take “Citrobacter freundii isolate secondary sludge #162 (carbapenemase genes (PCR): KPC)”: the MIC with Imipenem came out at 16 µg/mL; with Meropenem, 32 µg/mL; with Ertapenem, 32 µg/mL.

As to “Citrobacter freundii isolate secondary sludge #163 (carbapenemase genes (PCR): KPC)”, the minimum inhibitory concentration (MIC) in the test with Imipenem was found to be 16 µg/mL; with Meropenem, 32 µg/mL; in the test with Ertapenem it was 32 µg/mL.

Turning to “Citrobacter freundii isolate sewage #206 (carbapenemase genes (PCR): KPC)”, the MIC in the test with Imipenem stood at 32 µg/mL; with Meropenem, 64 µg/mL; with Ertapenem, 64 µg/mL.

In the case of “Citrobacter freundii isolate sewage #207 (carbapenemase genes (PCR): KPC)”, the MIC in the test with Imipenem, in the test with Meropenem and with Ertapenem was 64 µg/mL each time.

As to “Enterobacter asburiae isolate primary sludge #90 (carbapenemase genes (PCR): KPC)”, the results for the MIC in the test with Imipenem, with Meropenem and with Ertapenem were 16 µg/mL, 64 µg/mL and 8 µg/mL, respectively.

On to “Enterobacter asburiae isolate primary sludge #91 (carbapenemase genes (PCR): KPC+GES)”, for which the minimal inhibitory concentration (MIC) in the test with Imipenem worked out at 16 µg/mL; with Meropenem, 32 µg/mL; with Ertapenem, 4 µg/mL.

For “Enterobacter asburiae isolate sewage #13 (carbapenemase genes (PCR): KPC)”, the MIC in the test with Imipenem was found to be 16 µg/mL; in the test with Meropenem, 32 µg/mL; with Ertapenem, 4 µg/mL.

Consider “Enterobacter asburiae isolate sewage #27 (carbapenemase genes (PCR): KPC)”, for which the MIC with Imipenem was 128 µg/mL; in the test with Meropenem, 128 µg/mL; with Ertapenem, 64 µg/mL.

“Enterobacter asburiae isolate sewage #28 (carbapenemase genes (PCR): KPC)”: the MIC in the test with Imipenem was 128 µg/mL; with Meropenem, 128 µg/mL; with Ertapenem, 64 µg/mL.

“Enterobacter asburiae isolate sewage #29 (carbapenemase genes (PCR): KPC)”: the values for the MIC in the test with Imipenem, with Meropenem and in the test with Ertapenem were 4 µg/mL, 8 µg/mL and 16 µg/mL, respectively.

Take “Enterobacter asburiae isolate sewage #32 (carbapenemase genes (PCR): KPC)”: the MIC amounted to 128 µg/mL with Imipenem, 128 µg/mL with Meropenem and 64 µg/mL with Ertapenem.

Turning to “Enterobacter asburiae isolate sewage #63 (carbapenemase genes (PCR): KPC)”, the MIC in the test with Imipenem turned out to be 32 µg/mL; in the test with Meropenem it was 32 µg/mL; with Ertapenem it was 64 µg/mL.

“Enterobacter asburiae isolate sewage #121 (carbapenemase genes (PCR): KPC)”: the values for the MIC in the test with Imipenem, with Meropenem and in the test with Ertapenem were 32 µg/mL, 64 µg/mL and 8 µg/mL, respectively.

Regarding “Enterobacter asburiae isolate sewage #131 (carbapenemase genes (PCR): KPC)”, the values for the MIC with Imipenem, with Meropenem and with Ertapenem were 32 µg/mL, 64 µg/mL and 8 µg/mL, respectively.

With “Enterobacter bugandensis isolate primary sludge #24 (carbapenemase genes (PCR): KPC)”, the results for the MIC with Imipenem, with Meropenem and with Ertapenem were 128 µg/mL, 64 µg/mL and 64 µg/mL, respectively.

Consider “Enterobacter bugandensis isolate primary sludge #28 (carbapenemase genes (PCR): KPC)”, for which the MIC was determined as 128 µg/mL with Imipenem, 128 µg/mL with Meropenem and 64 µg/mL with Ertapenem.

On to “Enterobacter bugandensis isolate primary sludge #42 (carbapenemase genes (PCR): KPC+GES)”, for which the MIC in the test with Imipenem was determined as 128 µg/mL; with Meropenem, 128 µg/mL; with Ertapenem, 64 µg/mL.

Take “Enterobacter bugandensis isolate secondary sludge #30 (carbapenemase genes (PCR): KPC)”: the MIC came to 128 µg/mL with Imipenem, 128 µg/mL with Meropenem and 64 µg/mL in the test with Ertapenem.

Regarding “Enterobacter bugandensis isolate sewage #22 (carbapenemase genes (PCR): KPC)”, the MIC was 128 µg/mL with Imipenem, 128 µg/mL with Meropenem and 64 µg/mL with Ertapenem.

With “Enterobacter bugandensis isolate sewage #24 (carbapenemase genes (PCR): KPC)”, the MIC with Imipenem stood at 128 µg/mL; in the test with Meropenem, 128 µg/mL; with Ertapenem, 64 µg/mL.

Regarding “Enterobacter bugandensis isolate sewage #25 (carbapenemase genes (PCR): KPC)”, the MIC amounted to 128 µg/mL in the test with Imipenem, 128 µg/mL in the test with Meropenem and 64 µg/mL in the test with Ertapenem.

As to “Enterobacter bugandensis isolate sewage #31 (carbapenemase genes (PCR): KPC)”, the MIC with Imipenem turned out to be 128 µg/mL; with Meropenem, 128 µg/mL; with Ertapenem, 64 µg/mL.

With “Enterobacter bugandensis isolate sewage #33 (carbapenemase genes (PCR): KPC)”, the MIC was 128 µg/mL with Imipenem, 128 µg/mL with Meropenem and 64 µg/mL with Ertapenem.

Take “Enterobacter bugandensis isolate sewage #34 (carbapenemase genes (PCR): KPC)”: the MIC came to 4 µg/mL in the test with Imipenem, 8 µg/mL with Meropenem and 4 µg/mL with Ertapenem.

For the test system “Enterobacter bugandensis isolate sewage #76 (carbapenemase genes (PCR): KPC)”, the MIC with Imipenem, with Meropenem and with Ertapenem was 64 µg/mL each time.

For “Enterobacter bugandensis isolate sewage #81 (carbapenemase genes (PCR): KPC)”, the MIC with Imipenem turned out to be 128 µg/mL; with Meropenem, 128 µg/mL; with Ertapenem, 64 µg/mL.

Turning to “Enterobacter bugandensis isolate sewage #83 (carbapenemase genes (PCR): KPC)”, the MIC with Imipenem came to 16 µg/mL; in the test with Meropenem, 32 µg/mL; with Ertapenem, 8 µg/mL.

Consider “Enterobacter bugandensis isolate sewage #86 (carbapenemase genes (PCR): KPC)”, for which the MIC with Imipenem, in the test with Meropenem and with Ertapenem was 64 µg/mL throughout.

In the case of “Enterobacter bugandensis isolate sewage #88 (carbapenemase genes (PCR): KPC)”, the MIC with Imipenem amounted to 32 µg/mL; with Meropenem, 64 µg/mL; in the test with Ertapenem, 64 µg/mL.

With “Enterobacter bugandensis isolate sewage #130 (carbapenemase genes (PCR): KPC)”, the MIC in the test with Imipenem stood at 32 µg/mL; in the test with Meropenem, 64 µg/mL; in the test with Ertapenem, 16 µg/mL.
